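Briefly, cells in 96-well plates were exposed to five compound concentrations for 48 h, and endpoints were estimated by linear interpolation. Here, GI50 denotes the concentration required for 50% inhibition of growth. The concentration for full growth arrest is given as TGI.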
Tested on: NCI-H322M lung
Test: NCI-60 cell line screen, 48 h

SMILES	TGI	GI50
COC(=O)C12OC(C)(C(CC(=O)OC(C)(C)C)C1=O)C1C(=O)N(c3ccccc3)C(=O)C12 (stereo not drawn)	> 100 µM	–
COc1ccc(-c2cc(-c3ccc(Nc4ccnc5cc(Cl)ccc45)cc3)nc(N)c2C#N)cc1	> 100 µM	–
O=C(O)CCSCCCN1C(=O)c2ccccc2C1=O	> 100 µM	–
C=CCNCCCN1C(=O)c2ccc3c4c(ccc(c24)C1=O)C(=O)N(CCCNCC=C)C3=O	0.883 µM	0.297 µM
COc1c(OC)c(N)c2cc(C)c(=O)c(C)cc2c1N	> 100 µM	–
FC(F)(F)C(C1=NC(C(F)(F)F)(C(F)(F)F)N=C(N2CCOCC2)O1)C(F)(F)F	> 100 µM	–
CS(=O)(=O)OCCn1cnc2nc(NC(=O)c3ccccc3)[nH]c(=O)c21	> 100 µM	–
COc1ccc(C(=O)c2sc(Nc3ccccc3)nc2N)cc1	> 100 µM	–
C=CC(=O)N1CCN(c2nc(OC[C@@H]3CCCN3C)nc3c2CCN(c2cccc4cccc(C)c24)C3)C[C@@H]1CC#N	11 µM	2.74 µM
COc1ccccc1N1C(Cl)C(=O)C1c1c[nH]c2ccccc12 (stereo not drawn)	> 100 µM	–
O=C1NCCCC12CCCNC2=O	> 100 µM	–
Nc1ccc(C2NC(=O)Cc3c2ccc2ccccc32)cc1 (stereo not drawn)	> 100 µM	–
COP(=O)(OC)C(=NCc1ccccc1)NNc1ccc([N+](=O)[O-])cc1	> 100 µM	–
COc1cc2nc(-c3cccs3)nc(N3C(c4ccc(O)cc4)=NNC(=O)c4ccccc43)c2cc1OC	> 100 µM	–
CC1=C(O)C(=O)C[C@]2(C)[C@H]3CC=C4[C@@H]5CC(C)(C)CC[C@@H]5C(=O)[C@H](O)[C@@]4(C)[C@]3(C)CC[C@@H]12	> 50 µM	–
COc1cc(C(O)c2nc3ccccc3s2)cc(OC)c1OC (stereo not drawn)	> 100 µM	> 100 µM
CC(=O)Nc1ccc(/C=N\N2C(=O)c3ccccc3C2=O)cc1	> 100 µM	–
CC(C)[C@@]12C[C@@H](OC(=O)COC(=O)/C=C/c3ccccc3)[C@@](C)(O1)[C@@H]1CC[C@@H](C)[C@H]1[C@@H]2OC(=O)/C=C/c1ccccc1	> 100 µM	> 100 µM
Cc1cccc2c(=O)c3c(O)cc(O)cc3[nH]c12	> 10 µM	–
C/C(=N\Nc1ccccc1Br)c1cccc(/C(C)=N/Nc2ccccc2Br)n1	> 100 µM	–
Cc1cc(C)nc(NC(=S)Nc2ccccc2Cl)c1	> 100 µM	–
O=c1[nH]c(=O)n(COCCO)c2ccc(Br)cc12	> 100 µM	–
OCC1OC(Oc2cc(O)cc(/C=C/c3ccc(O)cc3)c2)C(O)C(O)C1O (stereo not drawn)	> 100 µM	–
c1ccc(C(c2ccccc2)[P+](c2ccccc2)(c2ccccc2)c2ccccc2)cc1	13.3 µM	–

SMILES	TGI	GI50
Cc1nn(-c2ccccc2)c2c1CC(=O)Nc1ccccc1-2	> 100 µM	0.427 µM
CCOP(=O)(OCC)/C(C#N)=C/c1ccc(-c2ccc(F)cc2F)o1	32.2 µM	–
[C-]#[O+].[C-]#[O+].[C-]#[O+].[C-]#[O+].[Ir].[Ir].[O-]c1ccc2ccccc2c1C=Nc1ccc(N=Cc2c([O-])ccc3ccccc23)cc1	> 100 µM	> 100 µM
CN1CCN(c2cc3c(cc2F)c(=O)c(C(=O)O)cn3C2CC2)CC1CC#N (stereo not drawn)	> 100 µM	–
COc1ccc(-c2cnnn2-c2cc(OC)c3c(c2)OCO3)cc1	> 100 µM	0.673 µM
O=c1c2c(c1=O)C1(SCCCS1)c1cc(Cl)ccc1O2	> 100 µM	–
CC(C)(O)C1CCC(Nc2ccc3ncc(-c4cccc(C(F)(F)F)c4)n3n2)CC1 (stereo not drawn)	29.1 µM	2.63 µM
COc1cc(C2c3cc4c(cc3[C@@H](NCCN3CCCCC3)C3COC(=O)[C@H]23)OCO4)cc(OC)c1O (stereo partly drawn)	> 100 µM	–
CN(CC(=O)O)c1ccc(/C=C/c2ccnc3ccccc23)cc1	36 µM	–
NNC(=O)CCC(=O)Nc1cc(Cl)c(Cl)cc1Cl	> 100 µM	–
CN(C)c1ccc(-c2cc(-c3ccc(Nc4nc(Nc5ccccc5)nc(Nc5ccc(Cl)cc5)n4)cc3)nc(N)n2)cc1	48.5 µM	3.51 µM
Cn1ccc2c(c1=O)C(=O)c1nccc3c1c-2nc1ccccc13	3.38 µM	1.78 µM
O=C(Cn1cc(F)c(=O)[nH]c1=O)C12CC3CC(CC(C3)C1)C2	> 100 µM	–
O=c1c2cccc3cccc(c4oc5c6cccc7cccc(c(=O)c5c14)c76)c32	> 31.6 µM	–
N#Cc1c(-c2ccc(Cl)cc2)c(C#N)c(=O)n(NS(=O)(=O)c2ccccc2)c1S	> 100 µM	–
OCC1OC(NCCNCCNC2OC(CO)C(O)C(O)C2O)C(O)C(O)C1O (stereo not drawn)	> 100 µM	–
O=C1C=C[C@@]23C[C@@H](Nc4c(O)c5c6c(c42)=NCCC=6C=N5)SC3=C1	23.5 µM	10.8 µM
CCCCCCCCCCCCCCCCCCNc1ccn(C2OC(CO)C(O)C2O)c(=O)n1 (stereo not drawn)	> 100 µM	–
CC1=CCC(OC(=O)C(C)(C)CCC(O)(C(=O)OC2(C(C)C)CCC3(C)OC3C2)C(C)C)(C(C)C)CC1 (stereo not drawn)	1.46 µM	0.757 µM
COc1cc(/C=C/C(=O)OC2C(O)C3CC(OC(=O)c4cc(OC)c(OC)c(OC)c4)CC2N3C)cc(OC)c1OC (stereo not drawn)	> 50 µM	–
O=C(/C=C/c1cccs1)c1ccc(Nc2nc(Nc3ccc(F)cc3)nc(Nc3ccc(F)cc3)n2)cc1	> 100 µM	15.2 µM
C/C(=C\c1ccn(-c2ccc(N)c(F)c2)n1)[C@@H]1C[C@@H]2O[C@]2(C)CCC[C@H](C)[C@H](O)[C@@H](C)C(=O)C(C)(C)[C@@H](O)CC(=O)O1	> 50 µM	0.0167 µM
CC1(C)C2CCC(N)(C2)C1N (stereo not drawn)	> 100 µM	–
CCCCCCCCCCC(O)[C@H]1CCC(C2CC[C@H]([C@H](O)CCCCCCCCCCC(O)CC3=CC(C)OC3=O)O2)O1 (stereo partly drawn)	21.4 µM	2.86 µM

SMILES	TGI	GI50
COc1ccc(-c2nnc(SCC(=O)Nc3ccc(/C(C)=N\O)cc3)n2-c2ccccc2)cc1OC	> 100 µM	4.41 µM
Fc1cccc2cc3ccc4cccc5ccc(c12)c3c45	> 100 µM	–
CC1CC(c2cccc3c2OCO3)=Nc2ccccc2S1 (stereo not drawn)	> 100 µM	–
N#Cc1cccc(C(=O)Nc2cccc(NC(=O)c3cccc(C#N)c3)c2)c1	> 100 µM	43 µM
N#CCCSC1SC(=C2SC3=C(SCCS3)S2)SC1SCCC#N (stereo not drawn)	> 100 µM	–
COC(=O)C1C2C=CC(C2)C1(C(=O)OC)S(=O)CC12CCC(CC1O)C2(C)C (stereo not drawn)	> 100 µM	–
CCN(CCNc1ccc(C)c2sc3cc(Cl)ccc3c(=O)c12)CC(C)O (stereo not drawn)	3.95 µM	1.66 µM
CCC(CC)n1cc(C(=O)NC(=O)NCCCCCOC(=O)CCCCCCCCCCC(=O)OCCCCCNC(=O)NC(=O)c2cn(C(CC)CC)c(=O)[nH]c2=O)c(=O)[nH]c1=O	> 100 µM	–
NC(=O)c1oc([N+](=O)[O-])c(-c2ccccc2)c1-c1ccccc1	49.3 µM	–
CC(CN1CCN(C)CC1)CN1c2ccccc2Sc2ccc(C(F)(F)F)cc21 (stereo not drawn)	19 µM	4.9 µM
C[C@H]1[C@H](C)CC[C@]2(C(=O)N3CCN(C)CC3)CC[C@]3(C)C(=CC[C@@H]4[C@@]5(C)C/C(=C/c6cccnc6)C(=O)C(C)(C)[C@@H]5CC[C@]43C)[C@H]12	2.68 µM	1.37 µM
C=C(C)C(=O)OC1CC2=CC(CC3(C)OC3C3OC(=O)C(=C)C13)OC2=O (stereo not drawn)	31 µM	–
Cc1cnc(/N=c2\sc(C)cn2-c2ncc(C)s2)s1	> 100 µM	–
Cc1ccc(NC(=O)c2cc3ccccc3c(N=Nc3ccccc3O)c2O)c(C)c1	> 100 µM	–
CC(=O)OC1COC(n2nc(/C=C/c3ccc(Cl)cc3)c(=O)n(/N=C/c3ccccc3)c2=S)C(OC(C)=O)C1OC(C)=O (stereo not drawn)	> 100 µM	–
COc1ccc2c(c1)c(-c1nc(-c3c[nH]c4ncccc34)cs1)cn2CCCCN1CCOCC1	5.13 µM	1.82 µM
COC(=O)C1=C(C(=O)OC)C2C(C)=CC(C)=CN2C(C#N)=C(SC)S1 (stereo not drawn)	> 100 µM	–
COc1ccn2c(C(C)=O)cc(C(=O)c3ccc4c(c3)Sc3ccccc3N4)c2c1	> 100 µM	0.163 µM
COc1cc(Cl)cc(N(O)C(C)=O)c1OCc1ccccc1	> 100 µM	–
O=C(c1ccccc1)[C@H]1Nc2ccc(Cl)cc2[C@H]2OCCC[C@@H]12	53.6 µM	–
Nc1c(Br)c(=O)[nH]c(=O)n1COCCO	> 100 µM	–
CCN1CCN(CC(=O)Nc2nc3ccc(NCc4ccc(Cl)cc4)cc3s2)CC1	6.6 µM	2.52 µM
CCc1ccccc1N1CCN(C(=O)c2cc(OC)c(OC)c(OC)c2)CC1	> 100 µM	–
Cn1ccnc1C(=O)/C=C/c1ccc(CC(=O)Nc2ccc(S(F)(F)(F)(F)F)cc2)cc1	4.58 µM	2.11 µM

SMILES	TGI	GI50
O=C(N/N=C/c1ccc([N+](=O)[O-])cc1)c1cccc2nc3ccccc3nc12	> 74.2 µM	–
CN(C)CCNC(=O)c1ccc(C(=O)NCCN(C)C)c2nc3ccccc3cc12	4.85 µM	–
CS(=O)(=O)c1ccc(-c2cnc(N)c(C(=O)Nc3ccccc3)n2)cc1	> 100 µM	8.37 µM
Cc1ccc(/C=C2/SC(Nc3nc(-c4nc(NC5=NC(=O)/C(=C\c6ccc(C)cc6)S5)sc4C)c(C)s3)=NC2=O)cc1	8.53 µM	0.892 µM
NC(=O)NO	> 2500 µM	–
CCc1cccc2c3c(sc12)C(c1ccc(Cl)cc1)C(C#N)=C(N)O3 (stereo not drawn)	18.3 µM	1.36 µM
Cc1ccccc1NC(=O)C(=O)CC(=O)c1sc(Nc2ccccc2[N+](=O)[O-])nc1C	> 100 µM	–
CC(O)(/C=C/c1ccccc1)P(=O)(O)c1ccccc1 (stereo not drawn)	> 100 µM	–
C/C(=N\NC(=S)NC1CCCC1)c1ccccn1	> 75.5 µM	–
Cc1cc(NC(=O)NC(=O)c2ccccc2N)ccc1Oc1ncc(Br)cn1	> 100 µM	–
COc1cc(-c2c(C#N)c(N)c(C#N)c3c2COc2ccccc2-3)cc(OC)c1OC	> 100 µM	–
NC1CC(N)c2c(Br)sc(Br)c21 (stereo not drawn)	> 100 µM	–
Cc1nc2ccc(F)cc2c2c1CCO2	> 100 µM	–
Cc1nc2sc(C(=O)Nc3cccc4ccccc34)c(N)c2cc1C(=O)/C=C/c1ccccc1	> 50 µM	1.81 µM
C=CN1C(=O)OC[C@@H]1c1ccccc1	> 100 µM	–
COc1ccc(-c2cc(-c3ccccc3)nc(N3CCN(CCNc4ccnc5cc(Cl)ccc45)CC3)n2)cc1	23.3 µM	10.3 µM
CC(=O)NCCSC(=O)c1ccccc1	3.68 µM	–
CCOC(=O)c1sc2nc(SC)nc3c2c1NCN3c1ccc2c(c1)OCCCO2	> 100 µM	–
CC(=O)O[C@@H]1[C@H]2[C@@H](OC(=O)c3ccccc3)[C@@H](C)C[C@]2(O)[C@H](OC(C)=O)[C@@]2(C)[C@@H]3CC(C)(C)C(=O)[C@]3(OC(C)=O)C[C@@]12C	> 25 µM	–
C=CC(C)(C)C(=C)C(=O)N(C)c1ccccc1I	> 100 µM	–
CCCCCCCCCCCCCCCC[N+](C)(C)CCN(Cc1ccc(OC)cc1)c1ncccn1	17.1 µM	3.04 µM
